Source: PubChem BioAssay AID624417 (National Center for Advancing Translational Sciences (NCATS), 2012)
Out of some 410,000 compounds screened, about 6,400 (1.6%) were called active. This list was built around the results that the source calls inconclusive (neither active nor inactive); the mix of calls is not that of the screen. Calls follow the shape of the dose curve; as a rule, active = well fitted inhibition curve with a large enough effect; inconclusive = small, poorly fitted or top-dose-only effect; inactive = no such curve, though single readings can be large or run the other way. Where the call is inconclusive, the potency comes from a doubtful curve fit.

Each molecule was assayed against Glucagon-like peptide 1 receptor (Homo sapiens) (UniProt P43220) (assay: qHTS of GLP-1 Receptor Inverse Agonists (Inhibition Mode)). Details: HEK293 GLP-1R CRE-luciferase, luminescence, 24 h, GLP-1R form is constitutively active; activity change, negative = inhibition: at 38.3 µM (top of the series) unless noted.
How it was run: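 Inverse agonists were sought by their lowering of basal cAMP reporter luciferase output in HEK293 cells stably carrying constitutively active human GLP-1R, after 24 h compound treatment.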
% is scaled to controls: 0 for no effect and ±100 for the full control effect; potency is read from the fitted curve at half-maximal effect; tags tell the direction and shape of the fitted curve.
Also: nearly all actives have a fitted effect of over 55% in size.

UniProt P43220, sequence (P43220 whole entry, looked up): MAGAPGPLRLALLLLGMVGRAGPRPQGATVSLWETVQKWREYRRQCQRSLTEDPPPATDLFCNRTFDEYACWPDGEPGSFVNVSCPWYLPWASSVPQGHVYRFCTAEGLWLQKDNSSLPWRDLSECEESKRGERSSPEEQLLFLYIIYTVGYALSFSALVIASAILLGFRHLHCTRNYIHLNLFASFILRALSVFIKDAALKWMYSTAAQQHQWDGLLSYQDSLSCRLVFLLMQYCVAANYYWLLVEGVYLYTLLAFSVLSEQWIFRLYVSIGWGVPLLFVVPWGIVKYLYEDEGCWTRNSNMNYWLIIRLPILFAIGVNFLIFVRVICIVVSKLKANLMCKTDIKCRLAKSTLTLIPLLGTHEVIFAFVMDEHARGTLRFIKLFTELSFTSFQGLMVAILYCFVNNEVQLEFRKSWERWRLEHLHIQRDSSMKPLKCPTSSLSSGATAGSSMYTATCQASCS

Potency, active:
Cc1ccc(Cn2nc(C)cc2C(=O)Nc2ccc(Cl)cc2)cc1 4.47 µM

Potency, inconclusive:
CCCCCCCNC(=O)c1ccc(N2CCC3(CC2)OCCO3)c([N+](=O)[O-])c1 28.2 µM [inhibitor, single point]
CCOc1ccc(Cl)cc1S(=O)(=O)NC1CCCC1 12.6 µM [inhibitor, single point]
CCc1ccc2c(CN(C)Cc3ccccc3OC)cc(=O)oc2c1 28.2 µM [inhibitor, single point]
CCN(CC)CCCCNc1ncc2cc(-c3cc(OC)cc(OC)c3)c(NC(=O)NC(C)(C)C)nc2n1 4.47 µM [inhibitor, partial curve, poor fit]
CC1CCCCN1C(=S)NC(=O)c1ccccc1 (stereo unspecified) 14.1 µM [inhibitor, partial curve, poor fit]
CCC(=O)c1ccc(N2CCN(C(=O)c3ccccc3Br)CC2)c(F)c1 14.1 µM [inhibitor, partial curve, poor fit]
O=C(Nc1cccc(S(=O)(=O)N2CCCCC2)c1)c1ccc2ncsc2c1 28.2 µM [inhibitor, single point]
CN(c1ccccc1)c1nc(N)c([N+](=O)[O-])c(NCc2ccco2)n1 28.2 µM [inhibitor, single point]
CNCc1ccccc1Sc1cc(O)ccc1O 28.2 µM [inhibitor, single point]
Cc1cccc2c(C(=O)N3CCCCC3)cc(-c3ccccc3)nc12 11.2 µM [inhibitor, partial curve, poor fit]
CN(C)CCCN(C(=O)c1cc2cc([N+](=O)[O-])ccc2s1)c1nc2cc3c(cc2s1)OCCO3 28.2 µM [inhibitor, single point]
COC(=O)c1cc(Br)ccc1NC(=O)CSCc1c(C)noc1C 11.2 µM [inhibitor, partial curve, poor fit]
C/C(=N/NC(=O)CNC(=O)CCc1ccccc1)c1ccc(Cl)cc1 28.2 µM [inhibitor, single point]
O=C(NCCCN1CCOCC1)c1ccc2nc(Cc3cccc(Cl)c3)oc2c1 12.6 µM [inhibitor, single point]
O=C(Nc1nnc(S(=O)(=O)N2CCCc3ccccc32)s1)c1ccccc1Cl 28.2 µM [inhibitor, single point]
CCOC(=O)N1CCN(C(=O)c2cc(COc3ccc(OC)cc3Cl)on2)CC1 11.2 µM [inhibitor, single point]
O=C(Nc1cccnc1)c1ccc2nc(-c3ccccc3)c(-c3ccccc3)nc2c1 11.2 µM [inhibitor, partial curve, poor fit]
CC(C)N1CCN(S(=O)(=O)c2ccccc2)c2ccccc21 12.6 µM [inhibitor, single point]
O=C(c1cn[nH]c1)c1cc(F)ccc1O 7.08 µM [inhibitor, partial curve]
CC(C)c1ccc2[nH]c3c(c2c1)[C@@H]1CCN2C(=O)CCC[C@H](C3)[C@H]12 28.2 µM [inhibitor, single point]
Cc1ccc(-c2cnn(-c3ccccc3)c2N)cc1 31.6 µM [inhibitor, single point]
CCOC(=O)[C@H]1[C@H]2COc3ccc(C)cc3[C@@H]2N2C(=O)CN(Cc3ccc(C)cc3)C(=O)[C@@]12C 28.2 µM [inhibitor, single point]
COc1cccc(CN2CCNC(=O)C2CC(=O)N(C)C2CCCCC2)c1 (stereo unspecified) 3.55 µM [inhibitor, full curve, poor fit]
COC(=O)C1(C(=O)OC)C[C@H](c2ccc(OC)cc2)N(Cc2ccccc2OC)[C@@H]1c1ccc(OC)cc1 3.98 µM [inhibitor, full curve, poor fit]
COc1ccc(-c2csc(Nc3ccc(O)cc3)n2)cc1 28.2 µM [inhibitor, single point]
Cc1cc(F)ccc1S(=O)(=O)Nc1ccc2oc3c(c2c1)CC(C)CC3 (stereo unspecified) 22.4 µM [inhibitor, single point]
COc1ccccc1CN(C)CC(=O)Nc1cccc(S(=O)(=O)N2CCCCC2)c1 10 µM [inhibitor, single point]
Cc1cc(C)cc(NC(=S)Nc2ccc(Cl)c(Cl)c2)c1 11.2 µM [inhibitor, partial curve, poor fit]
CC(C)C[C@@H]1Cc2[nH][nH]c(=O)c2[C@H](CCc2ccccc2)O1 8.91 µM [inhibitor, partial curve]
CN1CCN(c2cccc3c2S(=O)(=O)N[C@@H](Cc2ccccc2)CO3)CC1 12.6 µM [inhibitor, partial curve, poor fit]
CC1CCCN(CCOc2cccc(Oc3ccccc3)c2)C1 (stereo unspecified) 22.4 µM [inhibitor, partial curve, poor fit]

Activity change, negative = inhibition, inactive:
Cc1ccc(-n2c(C)nc3c(cnn3-c3ccc(F)cc3)c2=O)cc1C -25.1%
Cc1ccc(CNC(=O)c2cc(C)nc3c2c(C)nn3-c2ccc(C)cc2)cc1 -7.02%
C=CCNC(=S)NC(=O)c1csc([N+](=O)[O-])c1 10.4%
COc1cc(OC)cc(C(=O)Nc2cc3c(cc2N2CCCC2)n(C)c(=O)c(=O)n3C)c1 11.6%
CC(OC(=O)CCCc1nc2ccccc2s1)C(=O)NC(N)=O (stereo unspecified) 11.5%
O=C(CSc1nccc(-c2cccs2)n1)Nc1cccc(Cl)c1 -22.3%
CCCCN1C(=O)C(CC(=O)NC2CCCCC2)CC(C(=O)N(C(C)C)C(C)C)=C1C (stereo unspecified) -12.3%
O=C(CN1C(=O)NC2(CCCCC2)C1=O)NCc1ccc2c(c1)OCO2 4.45%
CC(C)C[C@@H]1NC(=O)[C@H](C(C)C)NC(=O)c2cc([N+](=O)[O-])cc(I)c2OCC[C@@H](C(N)=O)NC1=O 13.9%
